Measurements taken from the antibiotic and cytotoxicity screens of Wong et al. (2023).
The other results are listed elsewhere or left out.

Assays:
[1] = tested on: HSkMC (human skeletal muscle cells); assay: cytotoxicity call (relative viability < 0.9); settings: 10 µM
[2] = tested on: HepG2; assay: cytotoxicity call (relative viability < 0.9); settings: 10 µM
[3] = tested on: S. aureus RN4220; assay: growth inhibition call (relative growth <= 0.2); settings: 50 µM

C[C@H](CO)N1C[C@H](C)[C@H](CN(C)C(=O)N[C@H](C)c2ccccc2)OCc2ccccc2-c2ccccc2C1=O
inactive: cytotoxicity call [1] | cytotoxicity call [2] | growth inhibition call [3]

C=CCC[C@@H](Cc1ccc(F)cc1)C(=O)OC[C@H]1CCCN1C(=O)[C@H](CC=C)CC(=O)N(CCO)Cc1ccccc1
inactive: cytotoxicity call [1] | cytotoxicity call [2] | growth inhibition call [3]

C[C@H](O)C#Cc1cnc2c(c1)C(=O)N([C@H](C)CO)C[C@H](C)[C@@H](CN(C)C(=O)Nc1ccc(C(F)(F)F)cc1)O2
inactive: cytotoxicity call [1] | cytotoxicity call [2] | growth inhibition call [3]

C/C=C/c1ccc2c(c1)O[C@@H](CN(C)Cc1ccc(C(=O)O)cc1)[C@H](C)CN([C@@H](C)CO)S2(=O)=O
inactive: cytotoxicity call [1] | cytotoxicity call [2] | growth inhibition call [3]

C[C@H](CO)N1C[C@H](C)[C@H](CN(C)C(=O)NC2CCCCC2)Oc2c(NC(=O)c3ccc(-c4nccs4)cc3)cccc2C1=O
inactive: cytotoxicity call [1] | cytotoxicity call [2] | growth inhibition call [3]

Cc1noc(C)c1NC(=O)Nc1cccc2c1O[C@H](CN(C)S(=O)(=O)c1ccccc1)[C@H](C)CN([C@@H](C)CO)C2=O
inactive: cytotoxicity call [1] | cytotoxicity call [2] | growth inhibition call [3]

Cc1noc(C)c1NC(=O)Nc1ccc2c(c1)C(=O)N([C@H](C)CO)C[C@@H](C)[C@@H](CN(C)Cc1ccncc1)OCCCC[C@H](C)O2
inactive: cytotoxicity call [1] | cytotoxicity call [2] | growth inhibition call [3]

C[C@H](CO)N1C[C@H](C)[C@H](CN(C)S(=O)(=O)c2ccc(F)cc2)OCCCC[C@H](C)Oc2ccc(NC(=O)Cc3ccccc3)cc2C1=O
inactive: cytotoxicity call [1] | cytotoxicity call [2] | growth inhibition call [3]

C[C@@H]1CN([C@H](C)CO)C(=O)Cc2cc(NC(=O)Nc3ccc(C(F)(F)F)cc3)ccc2O[C@H]1CN(C)S(C)(=O)=O
inactive: cytotoxicity call [1] | cytotoxicity call [2] | growth inhibition call [3]

CN(C)C(=O)C[C@@H]1CC[C@@H]2[C@H](COC[C@H](O)CN2S(=O)(=O)c2ccccc2)O1
inactive: cytotoxicity call [1] | cytotoxicity call [2] | growth inhibition call [3]

COc1ccc(S(=O)(=O)Nc2ccc3c(c2)C(=O)N([C@H](C)CO)C[C@@H](C)[C@H](CN(C)C(=O)Nc2cccc4ccccc24)OCCCC[C@@H](C)O3)cc1
inactive: cytotoxicity call [1] | cytotoxicity call [2] | growth inhibition call [3]

C[C@@H]1CCCCO[C@H](CN(C)C(=O)Cc2ccccc2)[C@@H](C)CN([C@@H](C)CO)C(=O)c2cc(NC(=O)NC3CCCCC3)ccc2O1
inactive: cytotoxicity call [1] | cytotoxicity call [2] | growth inhibition call [3]

COc1ccccc1-c1ccc2c(c1)O[C@H](CN(C)CC1CCOCC1)[C@@H](C)CN([C@H](C)CO)S2(=O)=O
inactive: cytotoxicity call [1] | cytotoxicity call [2] | growth inhibition call [3]

CC=Cc1ccc2n(c1=O)C[C@H]1[C@H](CO)[C@@H](C(=O)NCCc3cn(C)cn3)N(C(=O)CC)[C@@H]21
inactive: cytotoxicity call [1] | cytotoxicity call [2] | growth inhibition call [3]

COCC(=O)Nc1ccc2c(c1)C(=O)N(C)C[C@@H](OC)[C@@H](C)CN(Cc1ccccc1OC)[C@@H](C)CO2
inactive: cytotoxicity call [1] | cytotoxicity call [2] | growth inhibition call [3]

C[C@@H]1CCCCO[C@H](CN(C)Cc2ccncc2)[C@H](C)CN([C@H](C)CO)C(=O)c2cc(NC(=O)NC3CCCCC3)ccc2O1
inactive: cytotoxicity call [1] | cytotoxicity call [2] | growth inhibition call [3]

C[C@@H]1CN([C@H](C)CO)C(=O)c2c(c3ccccc3n2C)-c2ccccc2CO[C@H]1CN(C)Cc1ccc(Oc2ccccc2)cc1
inactive: cytotoxicity call [1] | cytotoxicity call [2] | growth inhibition call [3]

C[C@H](CO)N1C[C@H](C)[C@@H](CN(C)Cc2ccc3c(c2)OCO3)OCCCC[C@H](C)Oc2ccc(NC(=O)NC3CCCCC3)cc2C1=O
inactive: cytotoxicity call [1] | cytotoxicity call [2] | growth inhibition call [3]

C[C@H](CO)N1C[C@H](C)[C@H](CN(C)S(=O)(=O)c2ccc(F)cc2)Oc2ccc(NC(=O)Cn3cnnn3)cc2C1=O
inactive: cytotoxicity call [1] | cytotoxicity call [2] | growth inhibition call [3]

CC(C)NC(=O)N[C@@H]1C=C[C@H](CC(=O)NCCCN(C)C)O[C@H]1CO
inactive: cytotoxicity call [1] | cytotoxicity call [2] | growth inhibition call [3]

COc1ccc(S(=O)(=O)Nc2ccc3c(c2)C(=O)N([C@H](C)CO)C[C@@H](C)[C@@H](CN(C)S(=O)(=O)c2ccc(OC)cc2)O3)cc1
inactive: cytotoxicity call [1] | cytotoxicity call [2] | growth inhibition call [3]

O=C(C[C@H]1C[C@H]2c3cc(NC(=O)NC4CCCC4)ccc3O[C@H]2[C@H](CO)O1)NCc1ccc2c(c1)OCO2
inactive: cytotoxicity call [1] | cytotoxicity call [2] | growth inhibition call [3]

C[C@@H]1CN([C@@H](C)CO)C(=O)c2cc(NC(=O)CCC(F)(F)F)ccc2O[C@@H]1CN(C)S(C)(=O)=O
inactive: cytotoxicity call [1] | cytotoxicity call [2] | growth inhibition call [3]

C[C@H]1CN([C@@H](C)CO)C(=O)Cc2cc(NC(=O)c3ccncc3)ccc2O[C@@H]1CN(C)C(=O)NC1CCCCC1
inactive: cytotoxicity call [1] | cytotoxicity call [2] | growth inhibition call [3]
